Out of some 310,000 compounds screened, about 14,000 (4.5%) showed an effect of 50% or more. Effects have a minus sign here. The list shows a part of the results.
target: human ether-à-go-go-related gene (hERG) potassium channel (human, UniProt Q12809); test: primary screen, population patch clamp on CHO cells stably expressing hERG
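Note: peak tail current of the secondary pulse compared with the same well before compound.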

Sequence of human ether-à-go-go-related gene (hERG) potassium channel (Q12809 whole entry, looked up): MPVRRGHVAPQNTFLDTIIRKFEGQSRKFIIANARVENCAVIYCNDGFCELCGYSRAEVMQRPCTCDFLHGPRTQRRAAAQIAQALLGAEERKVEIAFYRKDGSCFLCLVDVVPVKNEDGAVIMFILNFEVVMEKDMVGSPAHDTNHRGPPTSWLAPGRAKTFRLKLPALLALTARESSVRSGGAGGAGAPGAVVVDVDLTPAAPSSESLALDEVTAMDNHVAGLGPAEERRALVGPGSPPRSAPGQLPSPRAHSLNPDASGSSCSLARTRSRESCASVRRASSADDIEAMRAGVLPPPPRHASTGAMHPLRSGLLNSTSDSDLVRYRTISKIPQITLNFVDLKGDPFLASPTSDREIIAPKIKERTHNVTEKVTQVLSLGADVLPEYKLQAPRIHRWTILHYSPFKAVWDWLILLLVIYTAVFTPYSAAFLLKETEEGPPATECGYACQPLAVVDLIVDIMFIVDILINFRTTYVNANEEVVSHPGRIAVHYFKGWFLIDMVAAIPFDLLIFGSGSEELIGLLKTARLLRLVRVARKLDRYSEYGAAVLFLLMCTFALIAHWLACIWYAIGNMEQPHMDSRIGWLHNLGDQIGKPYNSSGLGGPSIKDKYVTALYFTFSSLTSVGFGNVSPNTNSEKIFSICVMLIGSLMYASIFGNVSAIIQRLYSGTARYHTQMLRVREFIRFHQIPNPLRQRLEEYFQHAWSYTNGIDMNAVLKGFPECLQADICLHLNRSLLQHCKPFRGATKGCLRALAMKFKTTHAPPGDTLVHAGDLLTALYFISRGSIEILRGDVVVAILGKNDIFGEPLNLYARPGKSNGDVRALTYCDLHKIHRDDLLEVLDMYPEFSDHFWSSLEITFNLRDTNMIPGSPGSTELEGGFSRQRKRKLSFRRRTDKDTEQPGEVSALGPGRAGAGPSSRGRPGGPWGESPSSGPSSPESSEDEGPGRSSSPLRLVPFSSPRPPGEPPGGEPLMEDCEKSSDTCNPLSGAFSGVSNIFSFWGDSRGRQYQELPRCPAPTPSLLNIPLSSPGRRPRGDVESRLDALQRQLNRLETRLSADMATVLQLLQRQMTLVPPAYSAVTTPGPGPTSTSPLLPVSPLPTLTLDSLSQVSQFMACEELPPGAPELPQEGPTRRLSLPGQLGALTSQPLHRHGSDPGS

SMILES | hERG current change (%, negative = inhibition) at 10uM [%]
O=C(NCc1ccc2c(c1)OCO2)C1CCN(Cc2cnn(-c3ccccc3)c2-n2cccc2)CC1 | -49.2
CCCCCCCSc1cc(OC)c(CCNC)cc1OC.O=C(O)/C=C\C(=O)O | -41.3
Cc1cccc(N2CC(C)Cn3c2nc2c3c(=O)n(CC(=O)OCc3ccccc3)c(=O)n2C)c1 (stereo not shown) | -7.1
O=C(NCC(=O)N1CCN(c2ccccc2F)CC1)c1ccc(Br)o1 | -39.1
CN1CCN(S(=O)(=O)c2ccc3[nH]c(=O)oc3c2)CC1 | -6.28
C=CCN(Cc1nc(-c2cc(OC)c3c(c2)OCO3)oc1C)C1CCS(=O)(=O)C1 (stereo not shown) | 8.22
CC(OC(=O)C1=NNC(=O)CC1)C(=O)Nc1ncc(Cl)cc1Cl (stereo not shown) | 6.85
CCCN1C=CC(=CC=C(C#N)C#N)C=C1 | -3.42
Cc1ccccc1N(CC(=O)N/N=C/c1ccc(Cl)cc1)C(=O)c1ccccc1 | 3.66
Cc1sc(NC(=O)c2ccc(Br)s2)c(C(N)=O)c1C | 17.5
Cn1c(-c2ccccc2)n[nH]c1=S | -19.1
C=CCn1c(N)c(C(=O)Nc2ccc(C)c(C)c2)c2nc3ccccc3nc21 | 16.7
CC(C)(C)c1ccc(/C=C2\Oc3cc(OC(=O)N4CCOCC4)ccc3C2=O)cc1 | 1.02
CCN(CC(=O)Nc1c(F)cccc1F)C(=O)CCc1nc2cc(S(=O)(=O)N(C)C)ccc2n1CC | 10.6
O=C(NCCCN1CCOCC1)C(=O)NCCc1ccccc1 | 11.2
N/C(=N\OC(=O)Cc1ccc(-c2ccccc2)cc1)c1ccncc1 | 18
O=C1CCc2cc(S(=O)(=O)N3CCN(c4cccc(C(F)(F)F)c4)CC3)ccc2N1 | -9.64
CCc1c(C)c2c(C)[nH]nc2oc1=O | 0.753
COc1ccc(-c2cc3nc(C)c(CCC(=O)NCc4ccco4)c(C)n3n2)c(OC)c1 | -12.9
Cc1cc(N2C(=O)C3CC=CCC3C2=O)cc(C)c1Br (stereo not shown) | 14.7
O=C(NCC(c1ccco1)N1CCc2ccccc21)c1ccc([N+](=O)[O-])cc1 (stereo not shown) | -18.3
COc1ccc(Nc2nc3c([nH]2)c(=O)[nH]c(=O)n3C)cc1 | 16.3
CC1=C(C)CC(C(=O)NCCc2ccccc2)C(C(=O)O)C1 (stereo not shown) | -10.8
CCN(CC)C(=O)CN(c1ccc2c(c1)OCO2)S(C)(=O)=O | -3.23
O=C(CCNC(=O)c1ccc(Cl)cc1)Nc1ccc(S(=O)(=O)N2CCOCC2)cc1 | -6.76
COc1ccc(NC(=O)CC2C(=O)N(c3ccc(OC)cc3)C(=O)N2CCN2CCN(C)CC2)cc1 (stereo not shown) | 6.28
O=C(Nc1c2c(nn1-c1ccc(F)cc1)CS(=O)(=O)C2)C12CC3CC(CC(C3)C1)C2 | 3.32
CCOC(=O)C1=C(C)N(C)C(=S)NC1c1cc(OC)ccc1OC (stereo not shown) | 3.73

SMILES | hERG current change (%, negative = inhibition) at 10uM [%]
O=C(NCc1ccccc1Cl)C1CCN(S(=O)(=O)c2cccc3nonc23)CC1 | 16.4
COc1ccc(/C=C/C(=O)NC(=S)N2CCN(c3ccccn3)CC2)cc1 | -6.85
CC(C)CCNC(=O)Cn1c(=O)oc2cc(S(=O)(=O)N3CC(C)CC(C)C3)ccc21 (stereo not shown) | 13.3
COc1cnc(SCC(=O)O)[nH]c1=O | 24
CCN(CCCNC(=O)CCCCn1c(=O)[nH]c2ccccc2c1=O)c1ccccc1 | -9.65
CCn1c(=O)c(-c2cc(=O)[nH][nH]2)c(O)c2ccccc21 | 3.65
CC1CCN(c2ccc(/C=N\Nc3nncn3N)cc2[N+](=O)[O-])CC1 | -5.89
COc1ccc(/C=C/C(=O)N2CCC(C(N)=O)CC2)cc1S(=O)(=O)N1CCOCC1 | 24.7
O=C(Nc1ccc(Cl)cc1)c1cc2nc(-c3ccco3)cc(C(F)(F)F)n2n1 | -6.86
Cn1c([O-])c(Cc2cccc(Cl)c2Cl)c(=O)n(C)c1=O.[NH4+] | 21.7
Nc1ccc(C(=O)N2CCN(S(=O)(=O)c3ccc(Br)cc3)CC2)cc1[N+](=O)[O-] | -26.9
O=[N+]([O-])c1ccc(Nc2nccc(Cl)n2)cc1 | 6.81
CCCCS(=O)(=O)N1CCCC(C(=O)Oc2ccc(Cl)cc2)C1 (stereo not shown) | 18.7
CCN(CC)c1ccc(S(=O)(=O)N2CCOCC2)cc1NC(=O)COC(=O)c1cccnc1SC | -6.96
CCOC(=O)N1CCN(C(=S)Nc2ccccc2C)CC1 | -7.75
CCOC(=O)C1CCCN(C(=O)c2ccc3[nH]c4c(c3c2)CC(C)CC4)C1 (stereo not shown) | -9
O=CN1CCN(C(=O)c2ccc([N+](=O)[O-])cc2)CC1 | -22.3
CCC(C)NCCCCOc1ccc(Cl)cc1C.O=C(O)C(=O)O (stereo not shown) | -58.6
CCN(CC)S(=O)(=O)c1ccc(N(C)C)c(NC(=O)CSCc2c(C)noc2C)c1 | -60.4
COc1ccc(NC(=S)Nc2ccc3nc(C)c(C)nc3c2)cc1 | -9.78
Cc1ccc(/C=N/N2CCN(Cc3cccc4ccccc34)CC2)o1 | -15.2
NS(=O)(=O)c1ccc2nc(NC(=O)C3=COCCO3)sc2c1 | 19.3
CN(CCO)c1ccc(-c2nn(C)c(=O)c3ccccc23)cc1[N+](=O)[O-] | 2.14
CCOC(=O)C1=CC[C@@H](c2ccccc2Cl)N(S(=O)(=O)c2ccc(C)cc2)[C@H]1C(=O)OCC | -18
CSCCC(NC(=O)c1ccccc1)C(=O)Nc1ccncc1 (stereo not shown) | -14.4
CC(C1CC1)N(C(=O)NC1CCS(=O)(=O)C1)c1ccccc1 (stereo not shown) | -4.02
CCOC(=O)c1ccc(NC(=O)NCCc2cnc[nH]2)cc1 | 4.44

— publication PMC4336329 (PLoS ONE, 2015)
